The target of assay [1] is survival of motor neurons (SMN) protein (human (endogenous in HeLa)) (UniProt Q16637). In words: co-sedimentation; HeLa cytoplasmic extract (low salt) on 15-30% sucrose density gradient in 150 mM NaCl, 50 mM Tris HCl pH 7.4, 5 mM MgCl2, 21 hours at 4°C; fractions western blotted.
Assay [2] shares this target. Kind of assay: co-IP; MANSMA1 anti-SMN mAb on anti-mouse Ig Dynabeads, 16 h at 4°C with HeLa nuclear extract (420 mM KCl, 20 mM HEPES-KOH pH 7.9), washed 5x with PBS, western blot. Background: In western blotting, separated proteins are transferred to a membrane and probed.
Assay [3] shares this target. Kind of assay: co-IP; MANSMA1 anti-SMN mAb on Dynabeads with HeLa cytoplasmic extract to which KCl was added to the same concentration as the nuclear extraction buffer (440 mM total).
Assay [4] shares this target. Kind of assay: co-IP; MANSMA1 anti-SMN mAb on anti-mouse Ig Dynabeads, 16 h at 4°C with HeLa cytoplasmic extract (10 mM KCl, 10 mM HEPES-KOH pH 7.9), washed 5x with PBS, western blot.
The target is the same in assay [5]. In words: co-sedimentation; HeLa nuclear extract (420 mM KCl) on 15-30% sucrose density gradient in 150 mM NaCl, 50 mM Tris HCl pH 7.4, 5 mM MgCl2, 21 hours at 4°C; fractions western blotted.
The target of assay [6] is gemin2 (human (endogenous in HeLa)) (UniProt O14893). Kind of assay: co-IP; anti-gemin antibodies (GEM6B, GEM7B, GEM5P, GEM4C, GEM4D, MANSIP1B, MANSIP1A, rabbit anti-gemin3) on Dynabeads with total RIPA extract of HeLa cells, 16 h at 4°C; western blot with anti-SMN mAb MANSMA12.
Assay [7] deals with gemin3 (human (endogenous in HeLa)) (UniProt Q9UHI6). The description is as above.
For assay [8], the target named is gemin5 (human (endogenous in HeLa)) (UniProt Q8TEQ6). Described as above.
Assay [9] addresses gemin6 (human (endogenous in HeLa)) (UniProt Q8WXD5). The description is as above.
The target of assay [10] is gemin7 (human (endogenous in HeLa)) (UniProt Q9H840). The description is as above.

Sequences of proteins named here, by UniProt entry; tags and fusion partners are left off.
UniProt Q16637: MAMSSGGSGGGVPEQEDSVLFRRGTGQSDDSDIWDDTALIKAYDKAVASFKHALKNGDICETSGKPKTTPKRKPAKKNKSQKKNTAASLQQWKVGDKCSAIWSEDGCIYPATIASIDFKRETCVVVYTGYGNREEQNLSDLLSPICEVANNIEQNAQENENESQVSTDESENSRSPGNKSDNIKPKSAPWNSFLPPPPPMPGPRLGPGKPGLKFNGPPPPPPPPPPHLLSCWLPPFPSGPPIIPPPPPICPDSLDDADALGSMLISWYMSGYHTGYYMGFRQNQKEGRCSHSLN
UniProt O14893: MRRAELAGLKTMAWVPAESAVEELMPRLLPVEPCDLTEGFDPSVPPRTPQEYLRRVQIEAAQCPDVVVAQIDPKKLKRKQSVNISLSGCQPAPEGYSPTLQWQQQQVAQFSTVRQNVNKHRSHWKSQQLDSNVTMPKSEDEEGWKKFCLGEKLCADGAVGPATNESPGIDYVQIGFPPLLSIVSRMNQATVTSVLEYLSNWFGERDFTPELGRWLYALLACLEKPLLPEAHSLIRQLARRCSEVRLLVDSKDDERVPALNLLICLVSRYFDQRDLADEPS
UniProt Q9UHI6: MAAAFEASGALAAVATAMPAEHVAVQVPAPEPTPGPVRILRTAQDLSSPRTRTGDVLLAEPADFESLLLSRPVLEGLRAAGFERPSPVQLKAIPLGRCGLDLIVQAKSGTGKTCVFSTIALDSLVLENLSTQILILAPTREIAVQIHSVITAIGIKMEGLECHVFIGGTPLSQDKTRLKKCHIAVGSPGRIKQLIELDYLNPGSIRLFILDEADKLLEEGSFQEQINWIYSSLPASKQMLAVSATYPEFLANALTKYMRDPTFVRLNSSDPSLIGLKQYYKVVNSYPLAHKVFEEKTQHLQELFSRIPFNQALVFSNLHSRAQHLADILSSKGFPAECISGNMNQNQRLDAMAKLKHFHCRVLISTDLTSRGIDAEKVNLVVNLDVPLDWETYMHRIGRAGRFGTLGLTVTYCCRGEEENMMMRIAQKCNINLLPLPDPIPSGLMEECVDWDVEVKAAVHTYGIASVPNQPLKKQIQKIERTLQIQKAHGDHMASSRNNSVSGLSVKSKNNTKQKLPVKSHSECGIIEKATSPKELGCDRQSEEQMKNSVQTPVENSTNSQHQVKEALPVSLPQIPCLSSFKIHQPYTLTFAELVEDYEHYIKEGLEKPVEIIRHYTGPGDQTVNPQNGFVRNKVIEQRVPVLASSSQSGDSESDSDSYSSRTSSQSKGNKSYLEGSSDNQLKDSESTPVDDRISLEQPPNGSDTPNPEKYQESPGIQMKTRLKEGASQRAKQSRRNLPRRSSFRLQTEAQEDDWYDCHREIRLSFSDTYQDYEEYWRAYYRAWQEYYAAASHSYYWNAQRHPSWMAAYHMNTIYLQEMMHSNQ
UniProt Q8TEQ6: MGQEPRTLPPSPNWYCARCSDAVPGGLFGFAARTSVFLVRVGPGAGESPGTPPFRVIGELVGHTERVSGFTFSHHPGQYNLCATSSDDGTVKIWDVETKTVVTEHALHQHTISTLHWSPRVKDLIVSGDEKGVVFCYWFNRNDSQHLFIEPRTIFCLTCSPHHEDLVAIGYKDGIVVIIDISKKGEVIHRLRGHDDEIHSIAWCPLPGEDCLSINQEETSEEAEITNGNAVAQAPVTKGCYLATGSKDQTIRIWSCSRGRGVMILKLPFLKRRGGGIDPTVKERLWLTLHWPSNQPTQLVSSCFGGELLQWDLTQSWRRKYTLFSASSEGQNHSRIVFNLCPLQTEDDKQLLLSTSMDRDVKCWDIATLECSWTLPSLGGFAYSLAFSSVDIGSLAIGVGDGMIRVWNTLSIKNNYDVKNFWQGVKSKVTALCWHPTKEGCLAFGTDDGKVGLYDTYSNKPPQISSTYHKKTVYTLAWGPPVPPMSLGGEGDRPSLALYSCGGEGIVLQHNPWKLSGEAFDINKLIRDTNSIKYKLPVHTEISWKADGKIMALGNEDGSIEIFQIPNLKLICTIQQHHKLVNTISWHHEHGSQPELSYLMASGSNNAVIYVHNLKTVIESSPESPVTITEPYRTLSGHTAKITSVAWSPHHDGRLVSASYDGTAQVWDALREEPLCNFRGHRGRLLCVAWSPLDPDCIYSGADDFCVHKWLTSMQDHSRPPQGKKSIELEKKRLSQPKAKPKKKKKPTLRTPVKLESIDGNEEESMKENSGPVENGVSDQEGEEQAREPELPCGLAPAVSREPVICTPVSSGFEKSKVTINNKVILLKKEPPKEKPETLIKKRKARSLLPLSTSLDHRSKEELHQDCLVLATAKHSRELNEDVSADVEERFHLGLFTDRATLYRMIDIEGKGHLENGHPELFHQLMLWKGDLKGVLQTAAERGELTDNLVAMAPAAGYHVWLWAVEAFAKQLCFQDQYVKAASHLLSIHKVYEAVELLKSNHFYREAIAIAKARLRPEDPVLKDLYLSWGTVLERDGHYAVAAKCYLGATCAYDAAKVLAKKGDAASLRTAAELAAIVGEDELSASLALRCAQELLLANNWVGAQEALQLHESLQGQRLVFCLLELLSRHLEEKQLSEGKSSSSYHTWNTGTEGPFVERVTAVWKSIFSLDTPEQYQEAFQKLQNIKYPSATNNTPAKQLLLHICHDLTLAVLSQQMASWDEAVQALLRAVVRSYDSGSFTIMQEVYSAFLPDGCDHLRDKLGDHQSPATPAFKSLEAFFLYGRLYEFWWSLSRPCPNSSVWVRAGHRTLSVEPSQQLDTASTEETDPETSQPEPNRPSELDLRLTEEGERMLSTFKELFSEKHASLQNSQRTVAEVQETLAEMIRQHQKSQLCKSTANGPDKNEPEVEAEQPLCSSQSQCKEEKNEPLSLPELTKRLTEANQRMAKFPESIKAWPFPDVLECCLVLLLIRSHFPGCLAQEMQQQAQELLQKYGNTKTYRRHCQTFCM
UniProt Q8WXD5: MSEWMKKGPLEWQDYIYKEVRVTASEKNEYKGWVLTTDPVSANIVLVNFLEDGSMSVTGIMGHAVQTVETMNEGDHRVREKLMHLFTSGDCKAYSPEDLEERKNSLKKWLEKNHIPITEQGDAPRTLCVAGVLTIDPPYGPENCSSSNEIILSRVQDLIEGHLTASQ
UniProt Q9H840: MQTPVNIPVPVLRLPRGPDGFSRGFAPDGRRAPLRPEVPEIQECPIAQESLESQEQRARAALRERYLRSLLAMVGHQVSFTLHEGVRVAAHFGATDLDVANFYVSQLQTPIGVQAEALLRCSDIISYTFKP
UniProt P35080: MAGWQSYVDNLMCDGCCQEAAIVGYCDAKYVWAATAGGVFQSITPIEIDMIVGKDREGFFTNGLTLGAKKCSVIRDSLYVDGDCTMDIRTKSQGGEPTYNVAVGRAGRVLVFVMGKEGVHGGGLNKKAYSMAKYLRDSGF

No constants are given. Whether binding was seen depends on the method and setting. In cells and extracts the contact can be indirect. Some binding calls cover weakened binding; strength is not graded here.

Take gemin3 (from UniProt Q9UHI6 1-824): the binding entry in assay [1] was “binds”.
Turning to gemin2 (from UniProt O14893 1-280), the binding entry in [1] was “binds”.
With gemin5 (from UniProt Q8TEQ6 1-1508), the binding entry is given as “no binding (condition: in nuclear extract)” in assay [2]; “binds” in assay [3]; “binds” in assay [4]; “no binding (condition: in nuclear extract)” in [5]; “binds” in assay [1].
As to profilin II (from UniProt P35080 1-140), the binding entry in assay [1] was “no binding”.
Consider “survival of motor neurons (SMN) protein (from UniProt Q16637 1-294)”, for which the binding result in assay [6], in [7], in assay [8], in [9] and in [10] was “binds” in each case.
In the case of gemin7 (from UniProt Q9H840 1-131), in [1], the binding entry is “binds”.
Regarding gemin6 (from UniProt Q8WXD5 1-167), the binding result in assay [1] was “binds”.

For the origin of these results see paper PMC1939999.
